Source: PubChem BioAssay AID602233 (National Center for Advancing Translational Sciences (NCATS), 2012)
In all, about 380,000 compounds went through this assay and about 170 (0.045%) were called active. Inconclusive results, whose numbers are uncertain, are shown with a selection of clear calls. Calls come from the whole dose curve; as a rule, active = well fitted inhibition curve with a large enough effect; inconclusive = small, poorly fitted or top-dose-only effect; inactive = no such curve, though single readings can be large or run the other way. Potencies of inconclusive entries are doubtful fits and often do not repeat.

Molecular target: Phosphoglycerate kinase, glycosomal (Trypanosoma brucei brucei) (UniProt P07378)
Assay: qHTS Assay to Find Inhibitors of Phosphoglycerate Kinase; note: nearly all actives have a fitted effect of over 60% in size
Conditions: PGK/GAPDH coupled, Kinase-Glo luminescence, 60 min; series mostly up to 57.5 µM; activity change, negative = inhibition: at the top concentration
How it was run: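 Recombinant glycosomal PGK reaction used 1,3-bisphosphoglycerate generated in-well by GAPDH (100nM final) in 100mM TEA pH 7.6, 5mM MgCl2, 0.01% Tween-20. After 60 minutes at room temperature, ATP was read by Kinase-Glo Plus luminescence end-point.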
% is set by controls: 0 for no effect and ±100 for the full control effect; potency is the fitted concentration of half-maximal effect; tags give direction and shape of the fitted curve.

Potency, active:
CC1=C/C(=C\c2ccc(Br)o2)C(=O)O1 10 µM, Cc1ccc(NC(=O)CN2C(=O)S/C(=C/c3ccc(-c4cc(C(=O)O)ccc4C)o3)C2=O)cc1C 20 µM

Potency, inconclusive:
O=C(/C=C/c1ccco1)Nc1ccccc1C(=O)O 28.2 µM [inhibitor, single point], Cc1ccc(C(=O)Oc2ccc(C(=O)COC(=O)C3CC(=O)N(Cc4ccco4)C3)cc2)cc1 (configuration not stated) 25.1 µM [inhibitor, single point], O=C(NCc1ccc2c(c1)OCO2)c1cc2ncc(Br)cn2n1 10 µM [inhibitor, partial curve, poor fit], Oc1ccc(C=NNC(=S)Nc2cccnc2)nc1 25.1 µM [inhibitor, single point], NC(=S)n1[nH]c(-c2ccc([N+](=O)[O-])cc2)c(N=Nc2cccc(Cl)c2)c1=O 22.4 µM [inhibitor, single point], CCC(=O)Oc1ccc(-c2nc(-c3cccnc3)no2)cc1 31.6 µM [inhibitor, partial curve, poor fit], Cc1ccc2c(c1)cc(CN(Cc1cccs1)C(=O)c1ccco1)c1nnnn12 0.708 µM [inhibitor, partial curve, poor fit], CCN(CC)CCC#CC(O)(c1ccccc1)C1CCCCC1 (configuration not stated) 39.8 µM [inhibitor, single point], O=C1CC(=O)NC(SCC(=O)Nc2ccccc2[N+](=O)[O-])=N1 28.2 µM [inhibitor, partial curve], CCN(CC)c1ccc(/C=N/NC(=O)c2ccoc2C)cc1 25.1 µM [inhibitor, partial curve, poor fit], N#C/C(N=Nc1ccccc1O)=N\Nc1ccccc1O 28.2 µM [inhibitor, partial curve, poor fit], O=C(O)c1cccc(-c2ccc(/C=C3/SC(=Nc4ccccc4)N(Cc4cccnc4)C3=O)o2)c1 10 µM [inhibitor, partial curve], Cc1cccc(N2NC(=O)/C(=C/c3ccc(-c4ccc(Cl)c(C(=O)O)c4)o3)C2=O)c1 17.8 µM [inhibitor, partial curve, poor fit], CC(=O)NC1=NC(=O)/C(=C/c2cc(C)n(-c3cccc(C(=O)O)c3)c2C)S1 28.2 µM [inhibitor, partial curve, poor fit], COc1ccccc1N1CCN(C(=O)C(C)CS(=O)(=O)c2ccc3c(c2)NC(=O)CS3)CC1 (configuration not stated) 12.6 µM [inhibitor, partial curve], Nc1ccc(O)c2c1C(=O)c1ccccc1C2=O 14.1 µM [inhibitor, partial curve], CC(C)Oc1ccc(/C=C(/NC(=O)c2ccccc2)C(=O)NC(Cc2ccccc2)C(=O)O)cc1 (configuration not stated) 35.5 µM [inhibitor, partial curve, poor fit], C=CCOC(=O)/C=C/C(=O)NC(N)=O 28.2 µM [inhibitor, partial curve, poor fit], O=C(O)c1ccc(C(=O)c2ccc3c(c2)C(=O)N(CC2CCCO2)C3=O)cc1 (configuration not stated) 12.6 µM [inhibitor, partial curve, poor fit], COc1ccc2nc(C)cc(SCC(=O)N/N=C/c3ccc(O)c(O)c3)c2c1 10 µM [inhibitor, partial curve], Nc1c(O)ccc2c1C(=O)c1ccccc1C2=O 39.8 µM [inhibitor, single point], O=C(/C=C/Nc1ccc(F)cc1Br)c1ccccc1 15.8 µM [inhibitor, partial curve, poor fit], Cc1ccc(C(=O)Nc2ccc3c(c2)OCCO3)c(C)c1 25.1 µM [inhibitor, partial curve, poor fit], S=C(Nc1ccc(Cl)c(Cl)c1)N1CCN(c2ccccn2)CC1 28.2 µM [inhibitor, single point], C=CC1=C(C(=O)O)N2C(=O)[C@@H](NC(=O)/C(=N/OCC(=O)O)c3csc(N)n3)[C@H]2SC1 3.55 µM [inhibitor, full curve, poor fit], O=C(Oc1ccc2c(c1)OCO2)c1cc2c(s1)CCC2 11.2 µM [inhibitor, partial curve, poor fit], COc1cc(OC)cc(-c2cc3ccc(OC)cc3cn2)c1 20 µM [inhibitor, single point], COc1ccc(/C=N/NC(=O)c2cc(O)c(O)c(O)c2)cc1Cn1cc([N+](=O)[O-])cn1 17.8 µM [inhibitor, partial curve, poor fit], Cc1nc(-c2ccc(NC(=O)c3ccc(Br)o3)cc2)cs1 31.6 µM [inhibitor, partial curve, poor fit], Cc1ccc(Cl)cc1NC(=O)Nc1cn(CC(C)C)c(=O)c2ccccc12 3.16 µM [inhibitor, full curve, poor fit], COc1ccc(C(=O)N2C(=S)NC(=O)/C2=C\c2ccc(C)cc2)cc1 35.5 µM [inhibitor, single point], Cc1c(NC(=O)C2C3C=CC(C3)C2C(=O)O)c(=O)n(-c2ccccc2)n1C (configuration not stated) 31.6 µM [inhibitor, single point], CCOc1cc(/C=C2\C(=O)NN(c3ccccc3)C2=O)cc([N+](=O)[O-])c1O 39.8 µM [inhibitor, partial curve, poor fit], CC1CCN(C(=O)COC(=O)/C=C/c2ccco2)CC1 31.6 µM [inhibitor, partial curve, poor fit], O=C(NCc1ccco1)c1cccc2c1C(=O)c1ccc(/C=C/c3ccccc3)cc1S2(=O)=O 28.2 µM [inhibitor, single point], CCOC(=O)c1c(S(=O)(=O)NCC(=O)Nc2cc(C)ccc2OC)c(C)n(C)c1C 31.6 µM [inhibitor, partial curve, poor fit], CCOc1ccc(CCn2c3c(c(=O)[nH]c2=O)C(NC(=O)c2ccccc2)(C(F)(F)F)C(=O)N3)cc1OCC (configuration not stated) 35.5 µM [inhibitor, single point], O=C1/C(=C\c2ccncc2)CCc2ccccc21 25.1 µM [inhibitor, partial curve, poor fit], Cc1sc(N=Nc2ccc(N(C)C)cc2)[n+]([O-])c1C 25.1 µM [inhibitor, partial curve, poor fit], CCCN(Cc1ccccc1)C(=S)Nc1cccc(C)c1C 39.8 µM [inhibitor, partial curve], Cc1cccc(N2CCN(C(=O)CCS(=O)(=O)c3ccc(Br)cc3)CC2C)c1 (configuration not stated) 31.6 µM [inhibitor, single point], COc1cc(/C=C2\C(=N)N3N=C(S(C)(=O)=O)SC3=NC2=O)cc(OC)c1OCCOc1ccccc1C 31.6 µM [inhibitor, partial curve, poor fit]

Activity change, negative = inhibition, inactive:
N#Cc1ccc(-c2cccs2)nc1SCc1ccc(Cl)cc1Cl -3.67%, COc1ccc(NC(=O)C2CCN(S(=O)(=O)c3ccc4[nH]c(=O)ccc4c3)CC2)c(OC)c1 -3.04%, Nc1nc(SCc2ccc(Cl)c(Cl)c2)n[nH]1 -8.2%, Cc1ccc(CCC(=O)Nc2ccc(CC(=O)O)cc2)o1 6.64%, CCCCN(C(=O)c1cccc2c(=O)c(C)c(-c3ccccc3)oc12)c1ccccc1 -0.6%, CN1C(=O)c2ccccc2N(C)C1c1ccc2c(c1)OCO2 (configuration not stated) -8.43%, O=C(O)c1ccc(Cl)c(S(=O)(=O)N(Cc2ccccc2)c2ccccc2)c1 1.56%, COc1ccc(CC(=O)Nc2sc3c(c2C(=O)Nc2ccc(C)cc2)CCCCC3)cc1 -10%, COc1cccc(OCCc2c(C)n[nH]c2C)c1 -2.09%, CCn1c(SCC(=O)NC(=O)NCc2ccco2)nc2sc(C)c(C)c2c1=O -0.473%, Cc1ccc(CSCC(=O)N2CCOCC2)cc1 2.42%, NNC(=O)c1cc2sccc2s1 7.07%, CCN(CC)C(=O)CC(c1cc(OC)c(OC)c(OC)c1)c1c(OC)cc(OC)c2ccc(=O)oc12 (configuration not stated) 0.0492%, CCC(=O)C1=C(c2cccc(OC)c2)N(C(=O)CC)n2c(nnc2C2CCCCC2)S1 6.48%, Cc1nc(S/C(=C\c2ccc(OCc3ccccc3Cl)cc2)C(=O)O)n[nH]1 -0.378%, COc1ccc(-c2nn(C)c(=O)c3ccccc23)cc1CNS(C)(=O)=O -2.04%, CC1Cc2ccccc2N1C(=O)CN1CCN(S(=O)(=O)c2ccc3c(c2)OCCCO3)CC1 (configuration not stated) 0.831%, COc1cccc(OCC(O)CN2CCC(CN3C(=O)c4cccc5cccc(c45)C3=O)CC2)c1 (configuration not stated) -8.28%, O=C(Cc1ccc(S(=O)(=O)N2CCCC2)s1)N1CCOCC1 -7.44%, Cc1ccc(-n2ncc(C(=O)NCCc3c[nH]c4ccccc34)c2C2CCN(C(=O)OC(C)(C)C)CC2)cc1C -2.42%

outcome, inactive:
CCOC(=O)N1CCN(C(=O)c2ccc(CS(=O)(=O)c3ccccc3OC)o2)CC1, CCNC(=O)c1nn(-c2ccccc2C)nc1CO, Cc1cccc2c1-c1sc(C(=O)N(C)c3cccc(C(F)(F)F)c3)cc1CO2
